# Measurements taken from the supplement of paper PMC3334620.
# In all, about 33,000 sequences were measured (“E-score (-0.5 to 0.5)”: median about -0.016, highest 2% from about 0.32 on). The list shows a part of the results.
# Biological target: T1, Stp1 (UniProt B3LFK1)
# T1 sequence: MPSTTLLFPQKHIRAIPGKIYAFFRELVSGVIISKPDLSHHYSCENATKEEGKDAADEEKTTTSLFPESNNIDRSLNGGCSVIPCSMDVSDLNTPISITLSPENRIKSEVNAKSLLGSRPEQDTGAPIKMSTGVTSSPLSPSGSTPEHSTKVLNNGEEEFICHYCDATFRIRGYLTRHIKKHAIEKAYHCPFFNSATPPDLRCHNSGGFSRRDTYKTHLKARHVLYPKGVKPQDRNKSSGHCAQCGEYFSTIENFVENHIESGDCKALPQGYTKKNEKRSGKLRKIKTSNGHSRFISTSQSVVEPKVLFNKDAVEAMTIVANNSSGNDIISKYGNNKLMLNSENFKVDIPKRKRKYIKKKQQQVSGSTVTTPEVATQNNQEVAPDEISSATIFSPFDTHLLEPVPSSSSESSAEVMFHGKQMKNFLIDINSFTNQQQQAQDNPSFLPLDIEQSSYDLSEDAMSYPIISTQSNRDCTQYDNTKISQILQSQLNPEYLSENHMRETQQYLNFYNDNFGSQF
# Assay: PBM E-score (8-mer binding enrichment) (E-score (-0.5 to 0.5)); higher = stronger / more preferred TF binding; most listed sequences are background and not binding sites
# Conditions: protein concentration: 200 nM; construct: GST-full length
# Procedure, shortened: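 PURExpress in vitro transcription/translation supplied GST-tagged yeast transcription factors, either full-length or DNA-binding domain. Applied at about 100-200 nM to universal all-10-mer Agilent arrays double-stranded by primer extension, the bound protein was detected with fluorescent anti-GST. E-scores, modified Wilcoxon-Mann-Whitney statistics, were given by the Universal PBM Analysis Suite to ungapped eight-base words pooled with their reverse complements after masliner normalisation.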
row,Sequence,PBM E-score
1,ACGCCTAG,0.0738
2,AAACGGTT,-0.155
3,CGGGTCAC,-0.229
4,GTCGGTCA,-0.175
5,CACGAGAC,-0.0878
6,CCGAACTA,0.0447
7,ATTCAGAG,-0.0616
8,CGGACAGA,0.0188
9,GGTACGCA,-0.0218
10,CAACTAGC,-0.039
11,GTGCGTCA,-0.124
12,CTTTTAAC,0.0407
13,TAGATTCA,-0.0655
14,TAACGTAA,-0.0249
15,ATCCAGCC,-0.205
16,CTTATGTA,0.0537
17,ACACGCGA,0.116
18,CCCGGACA,0.0109
19,GCGGGACA,-0.101
20,AGTTACAT,-0.109
21,CGTGGCGC,0.303
22,CTGCTAAA,-0.0648
23,ACCCTTAG,-0.223
24,ATCGTTCC,-0.0493
25,TATTCAGA,0.0372

row,Sequence,PBM E-score
1,AGCGTCTG,-0.168
2,AGATGGTA,0.0214
3,CACGGGTA,0.178
4,CAAGGGAC,-0.176
5,AAACGTAA,0.052
6,ATATCACA,0.0419
7,TCGGATCA,0.0679
8,CTCCTGAC,-0.134
9,CGCTCGAC,-0.0914
10,CAGGTATG,-0.0429
11,AGTATTGG,-0.16
12,ACCGTGCT,-0.133
13,GGACCGCC,-0.0374
14,AAACGAAT,0.0449
15,AGAACGAC,-0.145
16,CTTAGCGC,0.258
17,CAGTAAGG,-0.112
18,TCACTACA,0.094
19,CCCCCTAA,-0.343
20,AAAGTCAC,-0.0894
21,CCACATAG,-0.0697
22,AAAGGATG,0.0347
23,AAAAAGCA,-0.00964
24,GAGTTCAC,-0.151
25,TACCAATA,-0.0683

row,Sequence,PBM E-score
1,AAAGACAC,0.167
2,ATACTACC,0.0303
3,AACTGGGG,-0.263
4,CAGCCAAG,-0.234
5,ATGTAACG,0.0402
6,AGGCTAGC,-0.0958
7,AGTTCTAG,-0.112
8,CCCTTTCG,-0.0373
9,AACTTCAC,0.192
10,AGTCATAG,-0.198
11,TGAACACA,0.0238
12,GATGGCTA,0.038
13,TAAGAGAA,0.121
14,GATGAACC,-0.129
15,ATAGTCCG,-0.0422
16,GATGGGCC,-0.145
17,CGAACAAC,0.161
18,ATAATACA,0.28
19,CGTCAGCC,-0.00525
20,ACCTAGGG,-0.184
21,AGACCATG,-0.281
22,CTTTCGAA,0.0094
23,ATAGGTAC,-0.109
24,AGAACTTA,0.145
25,AATTCCCA,-0.18

row,Sequence,PBM E-score
1,GTTAGAGA,-0.193
2,CTCTACTC,-0.144
3,AAACTAGA,-0.104
4,AAGAGTCG,-0.166
5,AGGTGACG,-0.182
6,CCCGAGAA,-0.0165
7,ATACCCAG,-0.207
8,ATTGAACA,-0.041
9,TGCGAGCA,0.0256
10,CAATATAA,0.209
11,CGTACGGC,0.482
12,ATATAACG,0.118
13,GGGATCCA,-0.0993
14,CACGTCAC,-0.0268
15,CGTGTAGA,0.15
16,CGGCCAGA,-0.0091
17,ACTGTATG,-0.085
18,CCTGATGC,0.176
19,AACCCATT,-0.081
20,GGTGACTA,-0.0454
21,ACGGCTAG,0.235
22,CCCCGCAG,-0.0786
23,CCTCTATA,-0.0586
24,ACGAAAAA,0.0737
25,CGGCTAAG,0.226

row,Sequence,PBM E-score
1,AAAGCTAG,-0.247
2,CTCGAGGC,-0.0238
3,GGGTCCCA,-0.279
4,CCGGCACG,0.27
5,CGCAGGCC,-0.139
6,AAGCAGTG,-0.0307
7,CGAAGCCC,-0.0352
8,GGCCACAA,0.0978
9,GAAACGGA,0.132
10,ATTGTCGC,0.112
11,ATATGAGG,-0.0922
12,CGCAGCGA,-0.101
13,CGCGCGTC,0.16
14,AAGTCACC,-0.263
15,CTAAGCTA,0.103
16,AACGCGTG,0.144
17,CTTAAAAA,0.0532
18,AGGTTCAG,-0.0505
19,CTTCCTCC,-0.235
20,GGAGCTGA,-0.212
21,AGTCGGGC,-0.209
22,ACTGCTCC,-0.21
23,ACCAACCC,-0.06
24,CATGGACG,-0.0442
25,CGCGCCGC,0.483

row,Sequence,PBM E-score
1,CTGTGCCA,-0.0168
2,CGCTCCCG,-0.194
3,ACGTCGGA,-0.227
4,ACAGCTGA,0.052
5,AGAATTAT,-0.0351
6,CGAAATCG,0.00988
7,CTTAGATC,-0.0805
8,CTGAACAA,0.0991
9,GAATGGAA,0.143
10,GGATCGGA,0.0162
11,CCTCCGAG,-0.238
12,TGCAAGAA,0.169
13,GATGGTCA,-0.116
14,CCGAACGC,0.226
15,ACACGAGG,0.0411
16,AAATCAGG,-0.0251
17,CCAGAGGA,-0.158
18,AAGGGTAA,-0.26
19,CCGAGTTA,0.0424
20,ATCATCCG,0.0215
21,TCGGCACA,0.135
22,GACGGCCC,0.069
23,ACCCGGCT,-0.133
24,CTGTTCCA,-0.143
25,AAGCAGGC,-0.277

row,Sequence,PBM E-score
1,TCTGCACA,-0.0429
2,GACTGTTA,-0.141
3,CAACCGAC,0.0928
4,CTGCACAA,0.0933
5,AGCACACA,-0.358
6,AAACACTC,0.013
7,AGGATCTC,-0.245
8,AGGAGTCC,-0.151
9,ATGGGTGC,-0.106
10,CTTCGTGA,-0.0602
11,ACATTCAC,-0.0143
12,CGAAGATA,0.114
13,ACGTTAAC,0.0164
14,GTCTCCCA,-0.274
15,ATTTGATG,0.0645
16,CCACCATA,-0.0321
17,ACGCTCTG,-0.215
18,GAAATCTC,-0.0432
19,GGCCGTCA,-0.0626
20,ATTGACTA,-0.0906
21,CCAGGGAG,-0.343
22,CTCTTGGA,0.00544
